Measured values as given in PubChem BioAssay AID624202 (National Center for Advancing Translational Sciences (NCATS), 2012).
The whole screen tested about 380,000 compounds, of which about 4,000 (1.1%) were called active. Inconclusive results, whose numbers are uncertain, are shown with a selection of clear calls. The call rests on the fitted dose curve; in most records, active means well fitted activation curve with a large enough effect; inconclusive means small, poorly fitted or top-dose-only effect; inactive means no such curve, though single readings can be large or run the other way. A potency beside an inconclusive call is a rough fit, not a confirmed value.

assay: qHTS Assay to Identify Small Molecule Activators of BRCA1 Expression; details: MCF7-BRCA1-FFLuc reporter, luminescence, 48 h; activation: at 46.1 µM (top of the series), scaled: vehicle 0%, 10 µM genistein 100% unless noted; further: nearly all actives have a fitted effect of over 80% in size
Summary of the method: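 MCF7-BRCA1-FFLuc, 2000 cells/well; 2 h attach, 37 °C/5% CO2; compound 48 h; luciferase substrate 15 min; luminescence end-point. Norm. to genistein 10 microM max activation and DMSO; concentration-response curves fitted.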
Potency means the concentration at half of the fitted maximal effect; tags describe the fitted curve by direction and shape.

| SMILES | Potency | activation |
| --- | --- | --- |
| CCc1nc(SCc2ccc(Cl)cc2)n[nH]1 | inconclusive: 11.2 µM [activator, partial curve, poor fit] |  |
| N#CC(C#N)=Cc1cnc(N2CCN(c3ccccc3)CC2)s1 | inactive |  |
| CC(=O)c1ccc(N2CCN(C(=O)c3cc(-c4ccncc4)nc4ccc(Cl)cc34)CC2)cc1 | inactive |  |
| Cc1nn(-c2ccccc2)c(=O)c2ccccc12 | inactive |  |
| Cc1nn(Cc2ccc(C(=O)N3c4ccc(F)cc4CCC3C)o2)c(C)c1Br (stereo unspecified) | inconclusive: 15.8 µM [activator, single point] |  |
| COc1ccc(-n2nc(C(=O)NCC(=O)N3CCN(c4ccc(F)cc4)CC3)c3ccccc3c2=O)c(OC)c1 | inconclusive: 11.2 µM [activator, partial curve, poor fit] |  |
| CCCC(=O)N=C1SC2CS(=O)(=O)CC2N1c1ccc(-c2nc3ccc(C)cc3s2)cc1 (stereo unspecified) | active: 15.8 µM |  |
| Cc1ccc(-c2nnc(-c3cccnc3)o2)cc1 | active: 4.47 µM |  |
| Cc1cc(C(=O)COC(=O)c2ccc(Cl)c(S(N)(=O)=O)c2)c(C)n1C1CC1 | active: 11.2 µM |  |
| CCn1ccc(C(=O)Nc2ccccc2SC)n1 | inconclusive: 25.1 µM [activator, single point] |  |
| Cc1ccc(N2C(N)=C(C#N)C(c3ccsc3)C3=C2CC(C)(C)CC3=O)cc1 (stereo unspecified) | inactive |  |
| CC1(C)C(=O)OC(c2cc(Br)ccc2O)C(C)(C)C1=O (stereo unspecified) | inactive |  |
| O=C(N/N=C/c1ccc(O)cc1O)/C(=C/c1ccccc1)CCO | inactive |  |
| Cc1csc(Nc2ccc(Cl)cc2)n1 | inconclusive: 17.8 µM [activator, single point] |  |
| COc1ccc2cc(-c3ccccc3)ncc2c1 | inconclusive: 2.51 µM [activator, partial curve, poor fit] |  |
| O=C(CSc1ncccc1-c1nc2ccccc2[nH]1)N1CCc2ccccc21 | inconclusive: 8.91 µM [activator, partial curve, poor fit] |  |
| CSc1ccccc1OCc1cc(C(=O)N2CCN(c3ccccc3)CC2C)no1 (stereo unspecified) | active: 12.6 µM |  |
| CCOC(=O)c1cc(-c2ccc3c(c2)OCCO3)n[nH]1 | inconclusive: 3.16 µM [activator, partial curve, poor fit] |  |
| CCCCNC(=S)Nc1cccc2cnccc12 | inactive |  |
| c1ccc(-c2csc(N3CCCCCC3)n2)cc1 | inconclusive: 15.8 µM [activator, partial curve, poor fit] |  |
| O=C(NCc1ccc2c(c1)OCO2)Nc1ccc(F)cc1 | active: 10 µM |  |
| COc1ccc2nc(NC(=O)c3ccccc3O)sc2c1 | inconclusive: 0.631 µM [activator, full curve, poor fit] |  |
| Cc1cccc(NC(=O)/C=C/c2cccs2)n1 | inconclusive: 2.82 µM [activator, full curve, poor fit] |  |
| Cc1cccc(-c2noc(Cc3ccccc3)n2)c1 | inconclusive: 12.6 µM [activator, partial curve, poor fit] |  |
| O=C(c1ccc(F)cc1F)N1CCN(c2ccccn2)CC1 | inactive |  |
| COc1ccc(-c2nc3sc(CCNC(=O)c4cccc(C(F)(F)F)c4)c(C)n3n2)cc1 | active: 6.31 µM |  |

| SMILES | Potency | activation |
| --- | --- | --- |
| Cc1ccc(-c2nnn(CC(=O)NCC3CC3)n2)o1 | inactive |  |
| O=C(Nc1ccc2c(c1)ncn2-c1ccccc1)c1ccco1 | inconclusive: 7.08 µM [activator, partial curve, poor fit] |  |
| CC(C)(C)OC(=O)[C@H](Cc1ccccc1)NC(=O)c1nc[nH]c1C(=O)N1CCc2ccccc2C1 | inactive |  |
| Cc1ccc(Cc2nc3ccccc3nc2SCC(=O)NCc2ccc(F)cc2)cc1 | inactive |  |
| COc1cccc(OCc2cc(C(=O)NC(C)c3cnn(C)c3C)no2)c1 (stereo unspecified) | inconclusive: 17.8 µM [activator, single point] |  |
| Cc1cccc(-c2noc(-c3ccc(NC4CCCC4)c([N+](=O)[O-])c3)n2)c1 | inconclusive: 35.5 µM [activator, single point] |  |
| N/C(=N/OC(=O)c1cccc([N+](=O)[O-])c1)c1cccc([N+](=O)[O-])c1 | active: 7.08 µM |  |
| Fc1ccc(Nc2nc(-c3cccnc3)cs2)cc1 | inconclusive: 22.4 µM [activator, single point] |  |
| CC1(C)CC(=O)c2c(O)cc(OCc3ccc([N+](=O)[O-])cc3)cc2O1 | inconclusive: 2.82 µM [activator, full curve, poor fit] |  |
| O=C(NC1CC(=O)c2sccc21)c1ccc(Cl)cc1Cl (stereo unspecified) | inconclusive: 35.5 µM [activator, single point] |  |
| O=c1cccc2n1Cc1cc3ccccc3nc1-2 | inconclusive: 3.16 µM [activator, partial curve, poor fit] |  |
| O=C(NCCc1ccccc1)c1cc2ncc(Br)cn2n1 | inconclusive: 15.8 µM [activator, partial curve, poor fit] |  |
| O=c1n(-c2ccc(Br)cc2)cnn1-c1ncccc1[N+](=O)[O-] | inconclusive: 10 µM [activator, partial curve, poor fit] |  |
| Nc1ccccc1/C=C/c1ccccc1N | inconclusive: 2 µM [activator, partial curve, poor fit] |  |
| COc1ccc(-n2ncc3c(N4CCCc5ccccc54)ncnc32)cc1 | inconclusive: 0.562 µM [activator, full curve, poor fit] |  |
| CC(=O)c1ccc(N/C=C\C(=O)c2ccc(C)cc2)cc1 | inconclusive: 2.82 µM [activator, full curve, poor fit] |  |
| CN1CCCNc2nc3ccccc3nc21 | inconclusive: 6.31 µM [activator, partial curve, poor fit] |  |
| O=C(N/N=C/C(Br)=C/c1ccccc1)c1cc(-c2ccco2)[nH]n1 | inactive |  |
| Cc1cc(C)c(NC(=O)COC(=O)c2cc([N+](=O)[O-])ccc2N2CCOCC2)c(C)c1 | inactive |  |
| O=C(NCC1CCCO1)c1ccc(-c2ccccc2Cl)o1 (stereo unspecified) | inconclusive: 10 µM [activator, partial curve, poor fit] |  |
| COc1ccc2cc([C@H](C)C(=O)N(C)Cc3ccccc3N3CCCC3)ccc2c1 | inactive |  |
| CC(Oc1ccc(Cl)cc1Cl)c1nc(-c2ccc(NC(=O)c3ccccn3)cc2)no1 (stereo unspecified) | active: 1.26 µM |  |
| Cc1[nH]c2ccccc2c1C(=O)CSC(=S)N1CCCCC1 | inconclusive: 2.51 µM [activator, partial curve, poor fit] |  |
| O=C(CSc1ccccc1)Nc1cccc(S(=O)(=O)N2CCOCC2)c1 |  | inconclusive: 151% [activator] |
| COc1cccc2sc3cc(NCC[C@@H]4CCCN4C)ccc3c(=O)c12 | active: 11.2 µM |  |
| Cn1c2c(c3cnc4cc(Cl)ccc4c31)CNCC2 | inactive |  |

| SMILES | Potency | activation |
| --- | --- | --- |
| CCCOC(=O)c1ccc(NC(=O)c2ccoc2C)cc1 | inconclusive: 7.08 µM [activator, partial curve, poor fit] |  |
| N=C1C(c2nc3ccccc3[nH]2)=C(O)CN1C1CCCCC1 | inconclusive: 2.51 µM [activator, full curve, poor fit] |  |
| COc1ccc(Cc2nc3ccc(C(=O)NCCSC)cc3o2)cc1 | inconclusive: 35.5 µM [activator, single point] |  |
| COc1cccc(C(c2nnnn2C(C)(C)C)N2CCN(C/C=C/c3ccccc3)CC2)c1OC (stereo unspecified) | inactive |  |
| COc1ccc(O)c(/C=N/N2CCOCC2)c1 | inconclusive: 11.2 µM [activator, partial curve, poor fit] |  |
| O=C(Nc1nnc(Cc2ccccc2)s1)C1CCN(C(=O)c2cccs2)CC1 | inactive |  |
| Cc1ccc(C(=O)NC2CCCCNC2=O)cc1 (stereo unspecified) | inconclusive: 20 µM [activator, partial curve, poor fit] |  |
| Oc1ccc(N=Nc2ccc3c(c2)OCCO3)c2ncccc12 | inactive |  |
| COc1ccc(-c2[nH]c(-c3ccc4c(c3)OCO4)nc2-c2ccccc2)cc1 | inactive |  |
| COc1cc(F)ccc1-c1csc(C(O)c2ccccc2)n1 (stereo unspecified) | inactive |  |
| CC1C2CC(C/C2=N/NC(=O)c2cccs2)C1(C)C (stereo unspecified) | inconclusive: 20 µM [activator, single point] |  |
| COc1cccc(NC(=O)c2ccccc2F)c1 | active: 7.94 µM |  |
| COC1=C(C)C(=O)C2=C(C1=O)C1C3CC4=C(C(=O)C(OC)=C(C)C4=O)C(CNC(=O)C(C)=O)N3C(C#N)C(C2)N1C (stereo unspecified) |  | inconclusive: -82.3% [activator] |
| C=CCn1c(NCc2ccc(OC)cc2)nc2ccccc21 | inconclusive: 22.4 µM [activator, single point] |  |
| CCN(CC)c1ccc(/C=C/c2cccc[n+]2C)c(OC)c1 | inactive |  |
| Cc1ccc(-n2nnnc2CNC(=O)c2ccccc2C)cc1C | inactive |  |
| O=C(Nc1ccc2cn[nH]c2c1)c1ccccc1F | inconclusive: 0.631 µM [activator, full curve, poor fit] |  |
| Cc1nc(-c2ccccc2Cl)sc1C(=O)/C=C/N(C)C | inconclusive: 6.31 µM [activator, partial curve, poor fit] |  |
| COc1cccc(/C=C/C(=O)OCC(=O)c2ccccc2)c1OC | active: 11.2 µM |  |
| O=C(/C=C/c1ccccc1)Oc1cccc(C(=S)N2CCOCC2)c1 | inactive |  |
| O=C(Nc1ccc2[nH]ccc2c1)c1ccc(F)cc1 | inconclusive: 0.501 µM [activator, full curve, poor fit] |  |
| O=C(CCS(=O)(=O)Cc1ccccc1)Nc1ncc([N+](=O)[O-])s1 | active: 8.91 µM |  |
| CCCc1c(C)c2ccc(OCC(C)=O)cc2oc1=O | active: 5.62 µM |  |
| Cc1ccc(C)c(S(=O)(=O)NCCN2CCOCC2)c1 | inactive |  |
